# Experimental data published in the supplement of paper PMC10600219.
# Counter-ions that a name gives are not always drawn. In all, about 2,800 compounds were measured (“cell viability relative to vehicle”: median about 1.1, lowest 2% from about 0.19 on). The list shows a part of the results.
# Test system: NCI-H2228 parental
# Experiment: cell viability relative to vehicle (fraction of vehicle); NCI-H2228 is an ALK-positive lung cancer line and DTP means drug-tolerant persister; higher = less growth inhibition
# Conditions: 100 nM; treatment time 6 days
# Procedure, shortened: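 Parental NCI-H2228 cells and drug-tolerant persister cells (made with 1000 nM of a targeted drug for 13 days) were seeded in 384-well plates. The next day, the 3114-agent TargetMol anti-cancer compound library was added at 100 nM, with DMSO as vehicle. After 6 days, ATP was read with the CellTiter-Glo 3D Cell Viability Assay. Each value is cell viability relative to vehicle-treated cells.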
row,SMILES,cell viability
1,CCCc1nc(C)c2c(=O)nc(-c3cc(S(=O)(=O)N4CCN(CC)CC4)ccc3OCC)[nH]n12 [Vardenafil hydrochloride trihydrate],0.84
2,N[C@@H]1CC[C@@H](c2ccc(Cl)c(Cl)c2)c2ccccc21 [Dasotraline hydrochloride],1.14
3,Cc1cc(C)cc(C(=O)NOCCCCCC(=O)NO)c1,0.796
4,CCn1nc(C(=O)O)c(=O)c2cc3c(cc21)OCO3 [Cinoxacin],0.902
5,CCOc1nc2cccc(C(=O)O)c2n1Cc1ccc(-c2ccccc2-c2noc(=O)[nH]2)cc1 [Azilsartan],1.09
6,CC(C)(Oc1ccc(C(=O)c2ccc(Cl)cc2)cc1)C(=O)O [Fenofibric acid],1.28
7,Cc1cc([C@@H](C)Nc2ccccc2C(=O)O)c2nc(N3CCOCC3)cc(=O)n2c1,1.09
8,COc1cc(O)c(C(=O)Nc2nc(C(=O)NCCN(C(C)C)C(C)C)cs2)cc1OC [Acotiamide hydrochloride],0.934
9,COc1ccc2c(c1)C(c1ccc(F)cc1)=C(CN1CCCC1)CO2,1.1
10,O=C1CC2(CCCC2)CC(=O)N1CCCCN1CCN(c2ncccn2)CC1 [Buspirone hydrochloride],1.16
11,O=C(NOC[C@H](O)CO)c1ccc(F)c(F)c1Nc1ccc(I)cc1F,0.82
12,Cc1cc(C)c(/C=C2\C(=O)Nc3ccccc32)[nH]1 [Semaxanib],0.924
13,CC1(C)CC[C@]2(C(=O)O)CC[C@]3(C)C(=CC[C@@H]4[C@@]5(C)CC[C@H](O)[C@@](C)(CO)[C@@H]5CC[C@]43C)[C@@H]2C1 [Hederagenin],1.19
14,COc1ccc(S(=O)(=O)N(C(C)=O)c2ccccc2/C=C/c2cc[n+]([O-])cc2)cc1,0.614
15,CNC(C)C1CCC(N)C(OC2C(N)CC(N)C(OC3OCC(C)(O)C(NC)C3O)C2O)O1 (stereo unspecified) [Gentamycin sulfate],0.939
16,Cc1c(F)cc(C(=O)NC2CC2)cc1-c1ccc(C(=O)NCC(C)(C)C)cn1 [Losmapimod],1.11
17,Cc1nc(-c2cn3c(n2)-c2ccc(-c4cnn(C(C)(C)C(N)=O)c4)cc2OCC3)n(C(C)C)n1 [Taselisib],0.612
18,Nc1nc(NCCc2ccc(O)cc2)nc2nc(-c3ccco3)nn12,1.05

row,SMILES,cell viability
1,COc1ccc(C(NC(=O)c2cnc(-c3cccnn3)[nH]c2=O)c2ccc(OC)cc2)cc1,0.98
2,O=c1nc(N2CCN(CC3CCCCC3)CC2)sc2c([N+](=O)[O-])cc(C(F)(F)F)cc12,1.08
3,CNC(=O)c1cnn(-c2nc(N)c3ncn([C@@H]4O[C@H](CO)[C@@H](O)[C@H]4O)c3n2)c1 [Regadenoson],0.981
4,N#Cc1ccnc(N2C(=O)CC[C@H]2C(=O)N(c2cncc(F)c2)[C@H](C(=O)NC2CC(F)(F)C2)c2ccccc2Cl)c1 [Ivosidenib],1.09
5,C=CC(=O)Nc1ccc2ncnc(Nc3cccc(Br)c3)c2c1,0.914
6,CCC(=O)c1c(O)cc(O)cc1O [Flopropione],1.11
7,CC1Cc2ccccc2N1NC(=O)c1ccc(Cl)c(S(N)(=O)=O)c1 (stereo unspecified) [Indapamide],1.34
8,O=C(CCCCCCNC(=O)c1cnc(N(c2ccccc2)c2ccccc2Cl)nc1)NO [Citarinostat],1.03
9,O=C(/C=C\n1cnc(-c2cc(C(F)(F)F)cc(C(F)(F)F)c2)n1)NNc1ccccn1 [Verdinexor],0.555
10,O=C(O)c1ccc(CN2CCC(CN[C@@H]3C[C@H]3c3ccccc3)CC2)cc1,0.997
11,CCOCC(O)COc1ccc(NC(=O)CC[S+](C)C)cc1 (stereo unspecified) [Suplatast tosilate],1.07
12,CN1CCN(CCOc2cc(OC3CCOCC3)c3c(Nc4c(Cl)ccc5c4OCO5)ncnc3c2)CC1 [Saracatinib],1.13
13,Cc1cc(CC(=O)O)n(C)c1C(=O)c1ccc(Cl)cc1 [Zomepirac Sodium],0.884
14,O=C(NCCCNc1nc(Nc2cccc(CN3CCOCC3)c2)ncc1C1CC1)C1CCC1,0.937
15,Nc1ccc2cc3ccc(N)cc3nc2c1 [Proflavine Hemisulfate],1.13
16,C[C@H](CCC(=O)O)[C@H]1CC[C@H]2[C@@H]3CC[C@@H]4C[C@H](O)CC[C@]4(C)[C@H]3C[C@H](O)[C@]12C [Deoxycholic acid],1.12
17,Nc1ncnc2c1c(I)cn2[C@@H]1O[C@H](CO)[C@@H](O)[C@H]1O [5-Iodotubercidin],0.918
18,"CCC(=O)Oc1ccc2c(c1)CCC1C2CCC2(C)C(OC(=O)CC)CCC12 (stereo not drawn) [17-Beta-Estradiol-3,17-Dipropionate]",1.24
